Biological target: T1, human PVRL2-His recombinant protein (human, UniProt Q92692 32-360)
T1 construct: bought; also called His-tagged PVRL2; PVRL2 (CD112)
T1 sequence (looked up): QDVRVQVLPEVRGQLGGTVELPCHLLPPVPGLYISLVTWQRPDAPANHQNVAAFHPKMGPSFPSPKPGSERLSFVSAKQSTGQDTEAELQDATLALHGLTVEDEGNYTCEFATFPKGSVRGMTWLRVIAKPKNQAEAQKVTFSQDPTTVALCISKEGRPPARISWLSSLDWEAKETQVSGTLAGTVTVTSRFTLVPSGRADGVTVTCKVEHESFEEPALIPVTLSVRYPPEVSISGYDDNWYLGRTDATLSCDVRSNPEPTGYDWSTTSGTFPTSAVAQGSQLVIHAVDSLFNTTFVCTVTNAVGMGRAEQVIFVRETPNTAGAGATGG
Experiment: ELISA, PVRL2 coated, PVRIGHH in solution, one-site binding fit

B1: PVRIG hECD-hIg fusion protein (ECD of human PVRIG fused to Fc of human IgG1) (Fc fusion)
chain: TPEVWVQVRMEATELSSFTIRCGFLGSGSISLVTVSWGGPNGAGGTTLAVLHPERGIRQWAPARQARWETQSSISLILEGSGASSPCANTTFCCKFASFPEGSWEACGSLPPSSDPGLSAPPTPAPILRAD[in this place human IgG1 Fc with changes]
modifications: Biotinylated in some assays. The protein acts as a bivalent Fc dimer; one chain is given.
notes: biotinylated in some assays; also called PVRIG H:H; PVRIGHH
Kd: 13 nM

Reference: patent US20250333503A1 (COMPUGEN, published 2025)
